Where a chain is given by its changes, count along the chain named. The list shows a part of the results.
B1: CAACGCC (DNA:RNA)
RNA: GGGAGACCGGAAUUCAGAUUGUCCCAACGCCUUAAAUCCCGUCGUAGCCACCA
DNA 1: CAATCTGAATTCCGGTCTCCC
DNA 2: TGGTGGCTACGACGGGATT
B2: CGAUAGG (DNA:RNA)
RNA: B1 RNA with A26G, C28U, G29A, C30G, C31G
DNA 1: CAATCTGAATTCCGGTCTCCC
DNA 2: TGGTGGCTACGACGGGATT
B3: GCCUCUG (DNA:RNA)
RNA: GGGAGACCGGAAUUCAGAUUGUCCGCCUCUGUUAAAUCCCGUCGUAGCCACCA
DNA 1: CAATCTGAATTCCGGTCTCCC
DNA 2: TGGTGGCTACGACGGGATT
B4: AUAUUUU (DNA:RNA)
RNA: B3 RNA with G25A, C26U, C27A, C29U, G31U
DNA 1: CAATCTGAATTCCGGTCTCCC
DNA 2: TGGTGGCTACGACGGGATT
B5: UAGUUUU (DNA:RNA)
RNA: B3 RNA with G25U, C26A, C27G, C29U, G31U
DNA 1: CAATCTGAATTCCGGTCTCCC
DNA 2: TGGTGGCTACGACGGGATT
B6: AGCCGAC (DNA:RNA)
RNA: B1 RNA with C25A, A26G, A27C, C30A
DNA 1: CAATCTGAATTCCGGTCTCCC
DNA 2: TGGTGGCTACGACGGGATT
B7: AGAGCCC (DNA:RNA)
RNA: B1 RNA with C25A, A26G, C28G, G29C
DNA 1: CAATCTGAATTCCGGTCTCCC
DNA 2: TGGTGGCTACGACGGGATT
B8: GGCGCCA (DNA:RNA)
RNA: B3 RNA with C26G, U28G, U30C, G31A
DNA 1: CAATCTGAATTCCGGTCTCCC
DNA 2: TGGTGGCTACGACGGGATT
B9: AGUCCCC (DNA:RNA)
RNA: B1 RNA with C25A, A26G, A27U, G29C
DNA 1: CAATCTGAATTCCGGTCTCCC
DNA 2: TGGTGGCTACGACGGGATT
B10: AAGGAGC (DNA:RNA)
RNA: B1 RNA with C25A, A27G, C28G, G29A, C30G
DNA 1: CAATCTGAATTCCGGTCTCCC
DNA 2: TGGTGGCTACGACGGGATT
B11: GCUUAAA (DNA:RNA)
RNA: B3 RNA with C27U, C29A, U30A, G31A
DNA 1: CAATCTGAATTCCGGTCTCCC
DNA 2: TGGTGGCTACGACGGGATT
B12: UACCACA (DNA:RNA)
RNA: B1 RNA with C25U, A27C, G29A, C31A
DNA 1: CAATCTGAATTCCGGTCTCCC
DNA 2: TGGTGGCTACGACGGGATT
B13: CGAACGA (DNA:RNA)
RNA: B1 RNA with A26G, C28A, G29C, C30G, C31A
DNA 1: CAATCTGAATTCCGGTCTCCC
DNA 2: TGGTGGCTACGACGGGATT
B14: UAUCUCG (DNA:RNA)
RNA: B1 RNA with C25U, A27U, G29U, C31G
DNA 1: CAATCTGAATTCCGGTCTCCC
DNA 2: TGGTGGCTACGACGGGATT
B15: ACUGGAU (DNA:RNA)
RNA: B1 RNA with C25A, A26C, A27U, C28G, C30A, C31U
DNA 1: CAATCTGAATTCCGGTCTCCC
DNA 2: TGGTGGCTACGACGGGATT
B16: AUCGACC (DNA:RNA)
RNA: B1 RNA with C25A, A26U, A27C, C28G, G29A
DNA 1: CAATCTGAATTCCGGTCTCCC
DNA 2: TGGTGGCTACGACGGGATT
B17: GUCCGAA (DNA:RNA)
RNA: B1 RNA with C25G, A26U, A27C, C30A, C31A
DNA 1: CAATCTGAATTCCGGTCTCCC
DNA 2: TGGTGGCTACGACGGGATT
B18: GAAUUUC (DNA:RNA)
RNA: B1 RNA with C25G, C28U, G29U, C30U
DNA 1: CAATCTGAATTCCGGTCTCCC
DNA 2: TGGTGGCTACGACGGGATT
B19: CAUCCUA (DNA:RNA)
RNA: B1 RNA with A27U, G29C, C30U, C31A
DNA 1: CAATCTGAATTCCGGTCTCCC
DNA 2: TGGTGGCTACGACGGGATT
B20: CCGACCG (DNA:RNA)
RNA: B3 RNA with G25C, C27G, U28A, U30C
DNA 1: CAATCTGAATTCCGGTCTCCC
DNA 2: TGGTGGCTACGACGGGATT

Molecular target: T1, RBFOX1 RRM RbFoxmut (Fox-RRM*) (Homo sapiens, UniProt Q9NWB1 109-208, R118D;E147R;N151S;E152T)
T1 sequence: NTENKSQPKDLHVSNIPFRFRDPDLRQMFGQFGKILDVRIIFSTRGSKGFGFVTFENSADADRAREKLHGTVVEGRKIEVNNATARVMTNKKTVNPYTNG
Test: EMSA; HiTS-Eq, 1 nM pool, 10 min; buffer printed only for the single-RNA assays: 10 mM Tris pH 7.5, 150 mM NaCl, 3.4 mM EDTA, 0.001% NP-40, 30 C
Conditions: tags: His6 N-terminal (pET28a); label: 5' 32P
In short: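 Purified RbFox RRM, wild type or mutant, was incubated for 10 min in 50 µL with 1 nM of a 5′-radiolabelled RNA pool carrying 7 randomized nucleotides, whose flanks were annealed to DNA oligonucleotides, over a series of increasing protein concentrations. Unbound RNA was resolved on 8% native PAGE, cut out, reverse-transcribed, barcoded by PCR and sequenced on an Illumina HiSeq 2500. Relative association constants were derived from changes in read counts for each RNA species versus the control reaction and normalised to the cognate motif.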

In order of rising binding signal:
1. B9  0.0498 KA relative to UGCAUGU
2. B18  0.0518 KA relative to UGCAUGU
3. B7  0.0642 KA relative to UGCAUGU
4. B3  0.0649 KA relative to UGCAUGU
5. B17  0.0703 KA relative to UGCAUGU
6. B2  0.0747 KA relative to UGCAUGU
7. B15  0.0755 KA relative to UGCAUGU
8. B16  0.0755 KA relative to UGCAUGU
9. B8  0.0793 KA relative to UGCAUGU
10. B14  0.0877 KA relative to UGCAUGU
11. B6  0.09 KA relative to UGCAUGU
12. B11  0.0919 KA relative to UGCAUGU
13. B12  0.0966 KA relative to UGCAUGU
14. B10  0.101 KA relative to UGCAUGU
15. B20  0.102 KA relative to UGCAUGU
16. B19  0.109 KA relative to UGCAUGU
17. B1  0.117 KA relative to UGCAUGU
18. B5  0.119 KA relative to UGCAUGU
19. B4  0.122 KA relative to UGCAUGU
20. B13  0.14 KA relative to UGCAUGU

Source: PMC9911399, “Two distinct binding modes provide the RNA-binding protein RbFox with extraordinary sequence specificity”
